Assay results published in PubChem BioAssay AID504845 (National Center for Advancing Translational Sciences (NCATS), 2011).
About 150 (0.038%) of roughly 390,000 compounds were called active. The shares of active, inactive and inconclusive entries below differ from those in the screen. Calls come from the whole dose curve; as a rule, active = well fitted inhibition curve with a large enough effect; inconclusive = small, poorly fitted or top-dose-only effect; inactive = no such curve, though single readings can be large or run the other way. Potencies of inconclusive entries are doubtful fits and often do not repeat. Some compounds were tested as several samples or in several runs, with calls that do not always agree.

The molecules below were run against Regulator of G-protein signaling 4 (Homo sapiens) (UniProt P49798) (assay: Inhibitors of Regulator of G Protein Signaling (RGS) 4: qHTS). Conditions: Transcreener GDP fluorescence polarization, RGS4-accelerated GTP hydrolysis; series mostly up to 114 µM.
UniProt P49798, sequence (P49798 whole entry, looked up): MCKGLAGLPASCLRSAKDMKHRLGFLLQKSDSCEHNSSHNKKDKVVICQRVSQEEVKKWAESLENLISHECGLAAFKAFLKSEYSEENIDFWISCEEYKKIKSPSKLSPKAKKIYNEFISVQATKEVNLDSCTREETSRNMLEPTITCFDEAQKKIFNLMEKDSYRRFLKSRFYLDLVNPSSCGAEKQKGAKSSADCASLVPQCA
In short: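 MLSMR compounds (23 nl, pin-transferred) preincubated 10 min at room temperature with a 500nM (2x) first reagent, then RGS4 at 900nM (2x) plus Transcreener GDP mix added; fluorescence polarization (620/688 nm) read before and after 90 min at 30 °C.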
Note: nearly all actives have a fitted effect of over 75% in size.
Potency is the fitted concentration of half-maximal effect; tags give direction and shape of the fitted curve.

Q: O=C(/C=C/c1cccs1)NCc1ccccc1 was tested. Which Potency did it give?
A: The Potency was “inactive”.

Q: COc1ccccc1NC(=O)c1cccc(S(=O)(=O)N2CCOCC2)c1 was tested. Which Potency did it give?
A: Its Potency is “inactive”.

Q: Which Potency does the source give for O=c1[nH]cnc2cc(-c3ccc(Br)cc3)sc12 here?
A: Its Potency is inconclusive: 39.8 µM [inhibitor, partial curve, poor fit].

Q: Which Potency does the source give for CC(C)CCNC(=O)c1cnn2c(C(F)(F)F)cc(-c3ccco3)nc12 here?
A: Its Potency is inconclusive: 17.8 µM [inhibitor, full curve, poor fit].

Q: With O=C(Cc1ccccc1)Nc1nc2ccc(Cl)cc2c2nc(-c3ccco3)nn12 as the molecule, how does the Potency read?
A: Its Potency is active: 37.7 µM.

Q: For CN(Cc1ccccc1)C(=C(Cl)Cl)/C(=C1/NCCN1C)[N+](=O)[O-], which Potency is on record?
A: Its Potency is “inactive”.

Q: For O=C1C=C(N2CCOCC2)c2ccccc2C1=O, which Potency is on record?
A: Its Potency is “inactive”.

Q: For Cc1cc(C)cc(NC(=O)C2CCCN(c3cnccn3)C2)c1 (stereo not drawn), which Potency is on record?
A: The Potency was “inactive”.

Q: CCN(CC)C(=O)[C@H]1C[C@H](CC(=O)NCCCOC)C(=O)N2CCc3c([nH]c4cc(-c5ccco5)ccc34)[C@]12C was tested. Which Potency did it give?
A: The Potency was inconclusive: 79.4 µM [inhibitor, partial curve, poor fit].

Q: How did the Potency turn out when CC(/C=C1\SC(=Nc2cccnc2)NC1=O)=C\c1ccccc1 was run?
A: The Potency was inconclusive: 56.2 µM [inhibitor, partial curve, poor fit].

Q: CCCN(CCC)S(=O)(=O)c1ccc(C(=O)NCc2n[nH]c(=S)n2-c2ccc(Cl)c(Cl)c2)cc1 was tested. Which Potency did it give?
A: Its Potency is inconclusive: 56.2 µM [inhibitor, partial curve, poor fit].

Q: With CN(C)C(=O)c1ccc(NC(=O)c2cc(-n3cnnc3)ccc2Cl)cc1 as the molecule, how does the Potency read?
A: The Potency was inconclusive: 79.4 µM [inhibitor, partial curve, poor fit].

Q: COc1cc(OC)cc(N2CC(C)(C)C2=O)c1 was tested. Which Potency did it give?
A: The Potency was inconclusive: 17.8 µM [inhibitor, full curve, poor fit].

Q: Cc1ccc(N/C=C2\C(=O)C3(C)CCC2C3(C)C)cc1C (stereo not drawn) was tested. Which Potency did it give?
A: The Potency was inconclusive: 89.1 µM [inhibitor, single point].

Q: Which Potency does the source give for CCOC(=O)C(NCc1ccccc1OC)(NC(=O)CC)C(F)(F)F (stereo not drawn) here?
A: The Potency was inconclusive: 100 µM [inhibitor, single point].

Q: Which Potency does the source give for CCOc1ccccc1-c1nn2c(Cc3ccccc3)nnc2s1 here?
A: Its Potency is “inactive”.

Q: With CN1CCc2nc(SCc3ccc(Cl)cc3)c(C#N)c(-c3cccs3)c2C1 as the molecule, how does the Potency read?
A: The Potency was inconclusive: 56.2 µM [inhibitor, partial curve, poor fit].

Q: CCCc1nnc(NC(=O)CC(C)c2ccccc2)s1 (stereo not drawn) was tested. Which Potency did it give?
A: Its Potency is inconclusive: 89.1 µM [inhibitor, partial curve, poor fit].

Q: With CCOc1ccccc1-n1c(=S)sc2c(=O)n(-c3ccccc3)c(=S)[nH]c21 as the molecule, how does the Potency read?
A: Its Potency is inconclusive: 79.4 µM [inhibitor, partial curve, poor fit].

Q: For CN(C)C(=O)CSc1nc2cc(S(=O)(=O)N3CCOCC3)ccc2o1, which Potency is on record?
A: The Potency was inconclusive: 89.1 µM [inhibitor, partial curve, poor fit].

Q: For C1=CC2c3ccccc3NC(c3ccncc3)C2C1 (stereo not drawn), which Potency is on record?
A: Its Potency is inconclusive: 50.1 µM [inhibitor, partial curve, poor fit].

Q: How did the Potency turn out when CC(=O)Nc1ccc(S(=O)(=O)NCC2CCC(C(=O)NCc3ccccc3Cl)CC2)cc1 (stereo not drawn) was run?
A: The Potency was “inactive”.

Q: Which Potency does the source give for c1cncc(Nc2nc(-c3cccs3)cs2)c1 here?
A: The Potency was inconclusive: 79.4 µM [inhibitor, partial curve, poor fit].

Q: With Cc1ccc(S(=O)(=O)N2CCOCC2)cc1NC(=O)COC(=O)CSc1ccc(Br)cc1C as the molecule, how does the Potency read?
A: Its Potency is inconclusive: 89.1 µM [inhibitor, single point].

Q: Which Potency does the source give for COC(=O)c1c(NC(=O)CCc2ccc(C)o2)sc(C)c1C here?
A: The Potency was inconclusive: 44.7 µM [inhibitor, partial curve, poor fit].

Q: CC(C)(C)c1nc(S(=O)(=O)c2ccc(Cl)cc2)c(N2CCOCC2)o1 was tested. Which Potency did it give?
A: The Potency was inconclusive: 89.1 µM [inhibitor, single point].

Q: COc1cc(Cl)c(C)cc1NC(=O)CCc1c(C)nc2c3cccnc3nn2c1C was tested. Which Potency did it give?
A: The Potency was “inactive”.

Q: With Cc1ccc(-n2c(N)c(C(N)=O)sc2=S)c(C)c1 as the molecule, how does the Potency read?
A: Its Potency is inconclusive: 35.5 µM [inhibitor, full curve, poor fit].

Q: Which Potency does the source give for CN(C)c1ccc(NC(=O)c2ccc3nc[nH]c3c2)cc1 here?
A: The Potency was “inactive”.

Q: Which Potency does the source give for Cc1cccc(C)c1OCC(N)C(C)C (stereo not drawn) here?
A: The Potency was inconclusive: 18.9 µM [inhibitor, partial curve, poor fit].

Q: How did the Potency turn out when Cc1ccccc1CC1(CO)CCCN(C(=O)c2ccc3ncccc3c2)C1 (stereo not drawn) was run?
A: Its Potency is inconclusive: 35.5 µM [inhibitor, full curve, poor fit].

Q: Which Potency does the source give for Cc1cc(C)cc(NS(=O)(=O)c2ccc(NC(=S)NC(=O)c3ccc(Br)o3)cc2)c1 here?
A: Its Potency is “inactive”.

Q: How did the Potency turn out when COc1cc(O)c(CC=C(C)C)c(O)c1C(=O)CCc1ccc(O)cc1 was run?
A: Its Potency is “inactive”.

Q: Which Potency does the source give for Cc1ccc(OCC(=O)N2N=C(c3ccc(Cl)cc3)CC2c2ccco2)c([N+](=O)[O-])n1 (stereo not drawn) here?
A: Its Potency is inconclusive: 44.7 µM [inhibitor, partial curve, poor fit].

Q: CCOC(=O)/C=C/[C@H]1Cc2ccccc2CO1 was tested. Which Potency did it give?
A: The Potency was “inactive”.

Q: For N#CC1=C2SCN(C3CCCCC3)CN2C(=O)CC1c1ccc(Br)cc1 (stereo not drawn), which Potency is on record?
A: Its Potency is inconclusive: 28.2 µM [inhibitor, partial curve, poor fit].

Q: With Cc1cccc(NC(=O)Cc2c(F)cccc2Cl)n1 as the molecule, how does the Potency read?
A: The Potency was “inactive”.

Q: Which Potency does the source give for Cc1oc2cc3oc(=O)c(CC(=O)N4CCCCC4)c(C)c3cc2c1C here?
A: Its Potency is “inactive”.

Q: With S=C(NN=C(c1ccccc1)c1ccccn1)N(Cc1ccccn1)Cc1ccccn1 as the molecule, how does the Potency read?
A: Its Potency is inconclusive: 15.8 µM [inhibitor, full curve, poor fit].

Q: Which Potency does the source give for CCOC(=O)c1cc(C)n(-c2c(C)n(C)n(-c3ccccc3)c2=O)c1C here?
A: Its Potency is inconclusive: 89.1 µM [inhibitor, single point].

Q: Which Potency does the source give for COc1ccc2c(Cl)c(-c3nnc(SCC(=O)c4ccccc4)n3C)sc2c1 here?
A: The Potency was inconclusive: 35.5 µM [inhibitor, full curve, poor fit].

Q: How did the Potency turn out when c1ccc(-n2ncc3c(NCc4cccs4)ncnc32)cc1 was run?
A: The Potency was inconclusive: 100 µM [inhibitor, single point].

Q: With Cc1ccc(C2CC(=O)N3CN(c4ccc(Br)cc4)CSC3=C2C#N)o1 (stereo not drawn) as the molecule, how does the Potency read?
A: Its Potency is inconclusive: 79.4 µM [inhibitor, partial curve, poor fit].

Q: For O=C1CNC(=O)/C1=C/c1ccc(Br)cc1, which Potency is on record?
A: The Potency was inconclusive: 50.1 µM [inhibitor, partial curve, poor fit].

Q: For CCc1[nH]nc2c1C(c1ccc(Br)s1)C(C#N)=C(N)O2 (stereo not drawn), which Potency is on record?
A: Its Potency is inconclusive: 56.2 µM [inhibitor, partial curve, poor fit].

Q: With CC(=NNC(=S)SCc1ccccc1)c1ccccn1 as the molecule, how does the Potency read?
A: The Potency was inconclusive: 50.1 µM [inhibitor, partial curve, poor fit].

Q: For O=C(/C=C/c1ccc(NC(=O)c2ccccc2-c2ccccc2C(=O)O)cc1)c1ccccc1, which Potency is on record?
A: The Potency was inconclusive: 17.8 µM [inhibitor, full curve, poor fit].

Q: How did the Potency turn out when Cc1nonc1NC(=O)CSc1nc2ccccc2[nH]1 was run?
A: Its Potency is inconclusive: 100 µM [inhibitor, single point].

Q: COc1ccc(NC(=S)N2CCN(c3ccc([N+](=O)[O-])cc3)CC2)cc1OC was tested. Which Potency did it give?
A: Its Potency is “inactive”.

Q: COc1ccccc1C(CCN(Cc1ccccc1)C(C)=O)c1ccco1 (stereo not drawn) was tested. Which Potency did it give?
A: The Potency was inconclusive: 100 µM [inhibitor, single point].

Q: CCN(CC)CCN1C(=O)C(=O)/C(=C(/O)c2ccc3c(c2)CC(C)O3)C1c1ccc(OC)cc1 (stereo not drawn) was tested. Which Potency did it give?
A: Its Potency is “inactive”.

Q: With COCC(=O)NNC(=O)c1ccccc1OC as the molecule, how does the Potency read?
A: Its Potency is “inactive”.

Q: For O=C(Cc1ccccc1)NNC(=S)NC(=O)c1cccnc1, which Potency is on record?
A: Its Potency is inconclusive: 89.1 µM [inhibitor, single point].

Q: CCN(CC)CCCNc1ncnc2ccccc12 was tested. Which Potency did it give?
A: Its Potency is inconclusive: 100 µM [inhibitor, partial curve, poor fit].

Q: Cc1ccc(C(=O)NNC(=S)Nc2cccc3ccccc23)s1 was tested. Which Potency did it give?
A: The Potency was inconclusive: 39.8 µM [inhibitor, partial curve, poor fit].

Q: With CC(=O)NC1CC2CCCC(C1)N2Cc1ccc(C)cc1 (stereo not drawn) as the molecule, how does the Potency read?
A: Its Potency is “inactive”.

Q: How did the Potency turn out when S=c1[nH]nc(Nc2ccccc2)s1 was run?
A: The Potency was inconclusive: 79.4 µM [inhibitor, partial curve, poor fit].

Q: Cc1cc(NC(=O)c2c(Br)c(C)nn2C)no1 was tested. Which Potency did it give?
A: Its Potency is inconclusive: 79.4 µM [inhibitor, partial curve, poor fit].

Q: With CCCc1cc(C(=O)Nc2sc3c(c2C#N)CCC3)no1 as the molecule, how does the Potency read?
A: Its Potency is inconclusive: 79.4 µM [inhibitor, partial curve, poor fit].

Q: Which Potency does the source give for CCc1ccc(CN(C)C(=O)c2cc(COc3cccc4cnccc34)on2)cc1 here?
A: Its Potency is “inactive”.

Q: How did the Potency turn out when CCC(Sc1nc(-c2ccccc2)[nH]c1S(=O)(=O)c1ccc(C)cc1)C(=O)O (stereo not drawn) was run?
A: The Potency was inconclusive: 79.4 µM [inhibitor, partial curve, poor fit].

Q: How did the Potency turn out when NC(=O)c1c(-c2cccs2)csc1N was run?
A: Its Potency is inconclusive: 79.4 µM [inhibitor, partial curve, poor fit].

Q: Which Potency does the source give for Cc1ccc(S(=O)(=O)N2CCC(C(=O)OC(C)C(=O)N3CCOCC3)CC2)cc1 (stereo not drawn) here?
A: Its Potency is “inactive”.

Q: Which Potency does the source give for CC(=O)Nc1cccc(C(=O)OCC(=O)N2CCN(C(=O)COC(=O)c3cccc(NC(C)=O)c3)CC2)c1 here?
A: Its Potency is inconclusive: 89.1 µM [inhibitor, single point].

Q: Which Potency does the source give for CSCSC1=C(C#N)C(c2ccccc2Cl)C(C(C)=O)=C(C)N1 (stereo not drawn) here?
A: The Potency was “inactive”.

Q: CCOc1ccc(NC(=O)c2c(NCc3cccnc3)sc3c2CCC(C)C3)cc1 (stereo not drawn) was tested. Which Potency did it give?
A: The Potency was inconclusive: 89.1 µM [inhibitor, partial curve, poor fit].

Q: CCc1c(C)[nH]c(=S)c(C#N)c1C was tested. Which Potency did it give?
A: The Potency was inconclusive: 79.4 µM [inhibitor, partial curve, poor fit].

Q: With Cc1ccc(S(=O)(=O)CCNC(=O)Cc2ccccc2)cc1 as the molecule, how does the Potency read?
A: The Potency was inconclusive: 28.2 µM [inhibitor, full curve, poor fit].
